Measured values published in PubChem BioAssay AID743279 (National Center for Advancing Translational Sciences (NCATS), 2014).
Out of some 360,000 compounds screened, about 17,000 (4.7%) were called active. Inconclusive results, whose numbers are uncertain, are shown with a selection of clear calls. Cut-off read from the data, not from the text of the source: active = activity change below about -50%; inconclusive = mostly about -30% to -49%; inactive = weaker than that.

experiment: qHTS for Inhibitors of Inflammasome Signaling: IL-1-beta AlphaLISA Primary Screen; settings: THP-1 LPS/ATP IL-1B secretion, 16 h; at 57.5 µM, active compounds read low
Summary of the method: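 Secreted IL-1B measured by AlphaLISA bead assay after 16 h compound exposure of THP-1 cells; compounds (final up to 57.5 uM) added 1 h before LPS (250 ng/mL) and ATP (1.25 mM) stimulation; lower signal means less secretion.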
% is set by controls: 0 for no effect and ±100 for the full control effect.

Row | Compound | activity change
1 | Cc1ccc(CN2CCC(=O)N2)cc1 | inactive: 0%
2 | Cc1cc(C)c(OCCCNCc2ccccc2)c(Br)c1 | active: -71.9%
3 | Cc1ccc(NC(=O)CN2CCC(NC(=O)Cc3ccccc3)CC2)cc1C | inconclusive: -38.8%
4 | C[C@H](CO)N1C[C@H](C)[C@@H](CN(C)S(=O)(=O)c2cccs2)Oc2c(NS(=O)(=O)c3cn(C)cn3)cccc2C1=O | inactive: 23.3%
5 | COc1cccc(-c2nc(C(=O)NCC3CCCO3)cc3c2[nH]c2ccccc23)c1 (stereo unspecified) | inconclusive: -42.5%
6 | COc1ccc(S(=O)(=O)N2CCN(Cc3ccc(Cl)cc3)CC2)cc1 | active: -64.6%
7 | O=C1CCCN1CCCNc1ccc2nnc(CCC(=O)N3CCN(c4ccc(F)cc4)CC3)n2n1 | inconclusive: -39.1%
8 | COc1ccc(/C=C2\SC(N3CCc4ccccc4C3)=NC2=O)cc1 | inconclusive: -40.1%
9 | CCN(CC)c1ccc(NC(=O)Nc2ccccc2)cc1 | inconclusive: -34.1%
10 | CCOC(=O)c1c(NC(=O)CN2C(=O)NC(C)(c3ccc(OC(F)F)cc3)C2=O)sc(C)c1C (stereo unspecified) | inconclusive: -43%
11 | Cc1cc(OCC(=O)Nc2ccc(F)c(F)c2)nc(C(C)C)n1 | inconclusive: -31.8%
12 | O=C(Cc1ccc(Br)cc1)N/N=C/c1cccnc1 | inconclusive: -45.8%
13 | Cc1cccc(NC(=O)c2ccc(-n3cccn3)c([N+](=O)[O-])c2)c1 | inconclusive: -38.3%
14 | S=C1SCN(Cc2ccccc2)CN1Cc1ccccc1 | inactive: -21.6%
15 | COc1ccc(/C=C/c2cc(-c3ccc(C)cc3)o[n+]2C)cc1 | active: -120%
16 | CN(C)CCNC(=O)Cn1c(=O)c2cccn2c2ccc(F)cc21 | inconclusive: -32.2%
17 | Cc1cc(C)cc(NC(=O)CSc2nnc(-c3ccccc3)n2N)c1 | inconclusive: -32.2%
18 | Oc1ccc(Cl)cc1C1=NNC(c2ccc(Cl)cc2)C1 (stereo unspecified) | inconclusive: -47.2%
19 | Cn1c(SCc2c(Cl)cccc2Cl)nnc1-c1cccs1 | inconclusive: -31%

Row | Compound | activity change
20 | O=C(NC(NC(=S)Nc1c(Cl)cc(Cl)cc1Cl)C(Cl)(Cl)Cl)OCc1ccccc1 (stereo unspecified) | active: -58.4%
21 | CC1(C)CC2CC(C)(CN2C(=O)COc2cccc3ccccc23)C1 (stereo unspecified) | inconclusive: -42.8%
22 | O=S(=O)(c1cccs1)N1CN(Cc2ccc(F)cc2)c2nc3ccccc3nc21 | inconclusive: -47.2%
23 | O=[N+]([O-])c1ccc(CSc2ccc(S(=O)(=O)N3CCOCC3)cn2)cc1 | active: -63.6%
24 | CC(=O)Nc1ccc(S(=O)(=O)c2ccnc3cc(Cl)ccc23)cc1 | active: -103%
25 | CC(OC(=O)c1cc(S(=O)(=O)Nc2ccc(F)cc2)ccc1Cl)C(=O)Nc1ccc2c(c1)OCCO2 (stereo unspecified) | inconclusive: -41.7%
26 | Cn1c(=O)[nH]c(=O)c2c1nc(N1CCN(CCO)CC1)n2Cc1ccccc1Cl | inactive: 3.86%
27 | O=C(NC(=S)Nc1ccc2[nH]ncc2c1)c1ccccc1 | inconclusive: -38.6%
28 | O=C(O)/C=C/c1cn(-c2ccccc2)nc1-c1cc2ccccc2o1 | inconclusive: -34.5%
29 | CN(C(=O)CN1C(=O)/C(=C/c2ccccc2Cl)SC1=S)C1CCS(=O)(=O)C1 (stereo unspecified) | inconclusive: -33.9%
30 | O=C(c1cccc(C(F)(F)F)c1)C1CCCN(Cc2cccn2-c2ncccn2)C1 (stereo unspecified) | active: -67.9%
31 | Cc1cc([N+](=O)[O-])ccc1NC(=O)CN1C2CCC1CC(NC(=O)NC13CC4CC(CC(C4)C1)C3)C2 (stereo unspecified) | inconclusive: -42%
32 | CS(=O)(=O)N(CC(=O)Nc1cccc(Br)c1)Cc1ccccc1 | inconclusive: -30.9%
33 | Cc1ccc(S(=O)(=O)c2nc(NN(C)C)sc2Cl)cc1 | inactive: 6.36%
34 | COc1cc(/C=N/N(C)c2ccccc2)ccc1O | inconclusive: -34.9%
35 | COc1ccc(C)cc1NC(=O)c1cccc(C(=O)Nc2cc(C)ccc2OC)c1 | inconclusive: -46.6%
36 | CC12CN3CC(C)(CN(C1)C3c1ccccc1F)C2 (stereo unspecified) | inconclusive: -30.3%
37 | CN1OC[C@@H]2CN[C@H](c3cccc(-c4cc(Cl)cc(Cl)c4)c3)C[C@@H]21 | inconclusive: -37.8%
38 | CCCC1OC(c2cc3c(cc2Cl)OCO3)OCC1CC (stereo unspecified) | inactive: 11.2%

Row | Compound | activity change
39 | CCN(C(=O)Cn1nc(C)c([N+](=O)[O-])c1C)C1CCS(=O)(=O)C1 (stereo unspecified) | inactive: 10.1%
40 | CC(C)c1ccc(NC(=O)Nc2nc(C(N)C3CCCCC3)cs2)cc1 (stereo unspecified) | active: -113%
41 | CCN1/C(=C/c2cccc[n+]2C)Sc2ccc(OC)cc21 | inconclusive: -47.5%
42 | CN(C)CCNC(=O)c1cccc2nc3c(ccc4ccccc43)nc12 | active: -101%
43 | O=C1CCOc2cc(OCc3ccccc3)ccc21 | inactive: -0.475%
44 | CCN=c1sc2ccccc2n1CC(O)COc1ccccc1 (stereo unspecified) | inconclusive: -32%
45 | Cc1ccc(NC(=O)c2ccc(Cl)c(S(=O)(=O)N3CCCCC3)c2)nc1 | inconclusive: -32.2%
46 | O=C(CCN1C(=O)/C(=C/c2cccs2)SC1=S)Nc1cccc(O)c1 | active: -81.5%
47 | CCOC(=O)Cc1c(C)[nH]n(-c2ccccc2)c1=O | inconclusive: -41.2%
48 | COCCNc1nc(-c2ccccc2F)c2sc(-c3ccccc3)cc2n1 | inconclusive: -35.3%
49 | Cn1c(NCCO)nc2c(c1=O)C1(CCCCC1)Cc1ccccc1-2 | inactive: -7.67%
50 | COc1ccccc1C1SCCN1S(=O)(=O)c1cccc(C(F)(F)F)c1 (stereo unspecified) | inconclusive: -43.5%
51 | C[C@H]1CN([C@@H](C)CO)C(=O)c2cc(Br)cnc2O[C@H]1CN(C)Cc1ccc(Oc2ccccc2)cc1 | inconclusive: -35.1%
52 | COc1ccc(Cc2nn3c(-c4ccccc4Br)nnc3s2)cc1 | active: -84.5%
53 | O=C(NCCc1ccc(F)cc1)Nc1ccccc1Cl | inconclusive: -34.7%
54 | C=CCn1c(SCC(=O)N(C)CC(=O)Nc2ccc(C)cc2)nnc1-c1ccncc1 | inactive: 44.4%
55 | CCN1C(=O)/C(=C2\SC(N3CCCCC3)=NC2=O)c2ccccc21 | inconclusive: -46.4%
56 | NC(CCc1ccccc1)c1csc(Nc2ccccn2)n1 (stereo unspecified) | inconclusive: -47.6%
